# The supplement of paper PMC8728848
# This is one part of the list.
# B1: SJA (Sophora japonica) (protein)
# chain: FLGLFNSGGYSSSYQIVAVEFDTYINEWDPKTRHIGIDINSINSTKTVTWGWENGEVAIVLISYKAATETLTVSLTYPSSQTSYILSAAVDLKSILPEWVRIGF
# Key:
# Assay in all cases: glycan array binding signal (z-score within array); higher = stronger binding
# Conditions in all cases: glycan notation: IUPAC condensed, linker removed
# [1] = biological target: Gal(a1-3)Gal(b1-3)[Fuc(a1-4)]GlcNAc(b1-2)Man(a1-3)[Gal(a1-3)Gal(b1-3)[Fuc(a1-4)]GlcNAc(b1-2)Man(a1-6)]Man(b1-4)GlcNAc(b1-4)GlcNAc
# Procedure, shortened: (§1)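 The binding signal is a Z-score computed within each array. Data were drawn from 3228 arrays in the Consortium for Functional Glycomics database, restricted to those with a known protein sequence. Scores were averaged over arrays of the same protein sequence at different concentrations or buffers, and over linkers, and negative values can be taken as non-binding.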
# Gal(a1-3)Gal(b1-4)Glc = biological target: Gal(a1-3)Gal(b1-4)Glc
# Procedure, shortened: as §1
# Gal(a1-3)Gal(b1-4)GlcNAc = biological target: Gal(a1-3)Gal(b1-4)GlcNAc
# Procedure, shortened: as §1
# [2] = biological target: Gal(a1-3)Gal(b1-4)GlcNAc(b1-2)Man
# Procedure, shortened: as §1
# [3] = biological target: Gal(a1-3)Gal(b1-4)GlcNAc(b1-2)Man(a1-3)[Gal(a1-3)Gal(b1-4)GlcNAc(b1-2)Man(a1-6)]Man(b1-4)GlcNAc(b1-4)GlcNAc
# Procedure, shortened: as §1
# [4] = biological target: Gal(a1-3)Gal(b1-4)GlcNAc(b1-3)GalNAc
# Procedure, shortened: as §1
# [5] = biological target: Gal(a1-3)Gal(b1-4)GlcNAc(b1-6)GalNAc
# Procedure, shortened: as §1
# [6] = biological target: Gal(a1-3)Gal(b1-4)[Fuc(a1-3)]GlcNAc
# Procedure, shortened: as §1
# [7] = biological target: Gal(a1-3)Gal(b1-4)[Fuc(a1-3)]GlcNAc(b1-2)Man(a1-3)[Gal(a1-3)Gal(b1-4)[Fuc(a1-3)]GlcNAc(b1-2)Man(a1-6)]Man(b1-4)GlcNAc(b1-4)GlcNAc
# Procedure, shortened: as §1
# Gal(a1-3)GalNAc = biological target: Gal(a1-3)GalNAc
# Procedure, shortened: as §1
# [8] = biological target: Gal(a1-3)[Gal(a1-4)]Gal(b1-4)GlcNAc
# Procedure, shortened: as §1
# [9] = biological target: Gal(a1-4)Gal(b1-3)GlcNAc(b1-2)Man(a1-3)[Gal(a1-4)Gal(b1-3)GlcNAc(b1-2)Man(a1-6)]Man(b1-4)GlcNAc(b1-4)GlcNAc
# Procedure, shortened: as §1
# Gal(a1-4)Gal(b1-4)Glc = biological target: Gal(a1-4)Gal(b1-4)Glc
# Procedure, shortened: as §1
# Gal(a1-4)Gal(b1-4)GlcNAc = biological target: Gal(a1-4)Gal(b1-4)GlcNAc
# Procedure, shortened: as §1
# [10] = biological target: Gal(a1-4)Gal(b1-4)GlcNAc(b1-2)Man(a1-3)[Gal(a1-4)Gal(b1-4)GlcNAc(b1-2)Man(a1-6)]Man(b1-4)GlcNAc(b1-4)GlcNAc
# Procedure, shortened: as §1
# [11] = biological target: Gal(a1-4)Gal(b1-4)GlcNAc(b1-3)Gal(b1-4)Glc
# Procedure, shortened: as §1
# Gal(a1-4)GlcNAc = biological target: Gal(a1-4)GlcNAc
# Procedure, shortened: as §1
# Gal(a1-6)Glc = biological target: Gal(a1-6)Glc
# Procedure, shortened: as §1
# Gal(b1-2)Gal = biological target: Gal(b1-2)Gal
# Procedure, shortened: as §1
# Gal(b1-3)Gal = biological target: Gal(b1-3)Gal
# Procedure, shortened: as §1
# Gal(b1-3)Gal(b1-4)GlcNAc = biological target: Gal(b1-3)Gal(b1-4)GlcNAc
# Procedure, shortened: as §1
# Gal(b1-3)GalNAc = biological target: Gal(b1-3)GalNAc
# Procedure, shortened: as §1
# [12] = biological target: Gal(b1-3)GalNAc(a1-3)[Fuc(a1-2)]Gal(b1-4)Glc
# Procedure, shortened: as §1
# [13] = biological target: Gal(b1-3)GalNAc(a1-3)[Fuc(a1-2)]Gal(b1-4)GlcNAc
# Procedure, shortened: as §1
# Gal(b1-3)GalNAc(b1-3)Gal = biological target: Gal(b1-3)GalNAc(b1-3)Gal
# Procedure, shortened: as §1
# [14] = biological target: Gal(b1-3)GalNAc(b1-3)Gal(a1-4)Gal(b1-4)Glc
# Procedure, shortened: as §1
# [15] = biological target: Gal(b1-3)GalNAc(b1-4)Gal(b1-4)Glc
# Procedure, shortened: as §1
# [16] = biological target: Gal(b1-3)GalNAc(b1-4)[Neu5Ac(a2-3)]Gal(b1-4)Glc
# Procedure, shortened: as §1
# Gal(b1-3)GlcNAc = biological target: Gal(b1-3)GlcNAc
# Procedure, shortened: as §1
# [17] = biological target: Gal(b1-3)GlcNAc(a1-3)Gal(b1-4)GlcNAc
# Procedure, shortened: as §1
# [18] = biological target: Gal(b1-3)GlcNAc(a1-6)Gal(b1-4)GlcNAc
# Procedure, shortened: as §1
# Gal(b1-3)GlcNAc(b1-2)Man = biological target: Gal(b1-3)GlcNAc(b1-2)Man
# Procedure, shortened: as §1
# [19] = biological target: Gal(b1-3)GlcNAc(b1-2)Man(a1-3)[Gal(b1-3)GlcNAc(b1-2)Man(a1-6)]Man(b1-4)GlcNAc(b1-4)GlcNAc
# Procedure, shortened: as §1
# [20] = biological target: Gal(b1-3)GlcNAc(b1-2)Man(a1-3)[Gal(b1-3)GlcNAc(b1-2)Man(a1-6)]Man(b1-4)GlcNAc(b1-4)[Fuc(a1-6)]GlcNAc
# Procedure, shortened: as §1
# [21] = biological target: Gal(b1-3)GlcNAc(b1-2)Man(a1-3)[GlcNAc(b1-4)][Gal(b1-3)GlcNAc(b1-2)Man(a1-6)]Man(b1-4)GlcNAc(b1-4)GlcNAc
# Procedure, shortened: as §1
# [22] = biological target: Gal(b1-3)GlcNAc(b1-2)[Gal(b1-3)GlcNAc(b1-6)]Man(a1-6)[Gal(b1-3)GlcNAc(b1-2)Man(a1-3)]Man(b1-4)GlcNAc(b1-4)GlcNAc
# Procedure, shortened: as §1
# [23] = biological target: Gal(b1-3)GlcNAc(b1-3)Gal(b1-3)GlcNAc
# Procedure, shortened: as §1
# [24] = biological target: Gal(b1-3)GlcNAc(b1-3)Gal(b1-4)Glc
# Procedure, shortened: as §1
# [25] = biological target: Gal(b1-3)GlcNAc(b1-3)Gal(b1-4)GlcNAc
# Procedure, shortened: as §1
# [26] = biological target: Gal(b1-3)GlcNAc(b1-3)Gal(b1-4)GlcNAc(b1-2)Man(a1-3)[Gal(b1-3)GlcNAc(b1-3)Gal(b1-4)GlcNAc(b1-2)Man(a1-6)]Man(b1-4)GlcNAc(b1-4)GlcNAc
# Procedure, shortened: as §1
# [27] = biological target: Gal(b1-3)GlcNAc(b1-3)Gal(b1-4)GlcNAc(b1-2)[Gal(b1-3)GlcNAc(b1-3)Gal(b1-4)GlcNAc(b1-6)]Man(a1-6)[Gal(b1-3)GlcNAc(b1-3)Gal(b1-4)GlcNAc(b1-2)Man(a1-3)]Man(b1-4)GlcNAc(b1-4)[Fuc(a1-6)]GlcNAc
# Procedure, shortened: as §1
# [28] = biological target: Gal(b1-3)GlcNAc(b1-3)Gal(b1-4)GlcNAc(b1-3)Gal(b1-4)GlcNAc(b1-2)[Gal(b1-3)GlcNAc(b1-3)Gal(b1-4)GlcNAc(b1-3)Gal(b1-4)GlcNAc(b1-6)]Man(a1-6)[Gal(b1-3)GlcNAc(b1-3)Gal(b1-4)GlcNAc(b1-3)Gal(b1-4)GlcNAc(b1-2)Man(a1-3)]Man(b1-4)GlcNAc(b1-4)[Fuc(a1-6)]GlcNAc
# Procedure, shortened: as §1
# [29] = biological target: Gal(b1-3)GlcNAc(b1-3)Gal(b1-4)GlcNAc(b1-6)[Gal(b1-3)GlcNAc(b1-3)]Gal(b1-4)Glc
# Procedure, shortened: as §1
# [30] = biological target: Gal(b1-3)GlcNAc(b1-3)Gal(b1-4)[Fuc(a1-3)]GlcNAc
# Procedure, shortened: as §1
# [31] = biological target: Gal(b1-3)GlcNAc(b1-3)Gal(b1-4)[Fuc(a1-3)]GlcNAc(b1-6)[Gal(b1-3)GlcNAc(b1-3)]Gal(b1-4)Glc
# Procedure, shortened: as §1
binder,measurement,setting,value
B1,glycan array binding signal (z-score),[1],-0.094
same,glycan array binding signal (z-score),Gal(a1-3)Gal(b1-4)Glc,-0.143
same,glycan array binding signal (z-score),Gal(a1-3)Gal(b1-4)GlcNAc,-0.122
same,glycan array binding signal (z-score),[2],-0.262
same,glycan array binding signal (z-score),[3],-0.006
same,glycan array binding signal (z-score),[4],-0.133
same,glycan array binding signal (z-score),[5],-0.299
same,glycan array binding signal (z-score),[6],-0.112
same,glycan array binding signal (z-score),[7],-0.159
same,glycan array binding signal (z-score),Gal(a1-3)GalNAc,-0.144
same,glycan array binding signal (z-score),[8],-0.145
same,glycan array binding signal (z-score),[9],-0.339
same,glycan array binding signal (z-score),Gal(a1-4)Gal(b1-4)Glc,-0.134
same,glycan array binding signal (z-score),Gal(a1-4)Gal(b1-4)GlcNAc,-0.194
same,glycan array binding signal (z-score),[10],-0.382
same,glycan array binding signal (z-score),[11],-0.074
same,glycan array binding signal (z-score),Gal(a1-4)GlcNAc,-0.096
same,glycan array binding signal (z-score),Gal(a1-6)Glc,-0.167
same,glycan array binding signal (z-score),Gal(b1-2)Gal,-0.176
same,glycan array binding signal (z-score),Gal(b1-3)Gal,-0.078
same,glycan array binding signal (z-score),Gal(b1-3)Gal(b1-4)GlcNAc,-0.108
same,glycan array binding signal (z-score),Gal(b1-3)GalNAc,-0.188
same,glycan array binding signal (z-score),[12],-0.383
same,glycan array binding signal (z-score),[13],-0.337
same,glycan array binding signal (z-score),Gal(b1-3)GalNAc(b1-3)Gal,-0.219
same,glycan array binding signal (z-score),[14],-0.044
same,glycan array binding signal (z-score),[15],-0.008
same,glycan array binding signal (z-score),[16],-0.183
same,glycan array binding signal (z-score),Gal(b1-3)GlcNAc,-0.187
same,glycan array binding signal (z-score),[17],-0.361
same,glycan array binding signal (z-score),[18],-0.076
same,glycan array binding signal (z-score),Gal(b1-3)GlcNAc(b1-2)Man,-0.111
same,glycan array binding signal (z-score),[19],-0.024
same,glycan array binding signal (z-score),[20],-0.007
same,glycan array binding signal (z-score),[21],-0.265
same,glycan array binding signal (z-score),[22],-0.339
same,glycan array binding signal (z-score),[23],-0.114
same,glycan array binding signal (z-score),[24],-0.205
same,glycan array binding signal (z-score),[25],-0.21
same,glycan array binding signal (z-score),[26],-0.124
same,glycan array binding signal (z-score),[27],-0.135
same,glycan array binding signal (z-score),[28],0.238
same,glycan array binding signal (z-score),[29],-0.198
same,glycan array binding signal (z-score),[30],-0.027
same,glycan array binding signal (z-score),[31],-0.154
